Reference: patent US11779630B2, “Peptides and methods of using the same” (SERPIN PHARMA, LLC, priority 2020, dated 2023)

Experiments:
NFκB = NFκB reporter assay (THP1-XBlue-MD2-CD14 cells) stimulated with LPS, SEAP readout; settings: for NFκB activity (NFκB inducible SEAP in supernatant): peptide 50 μg/ml, LPS 5 ng/ml, overnight (FIG. 1)
Method: The reporter cells (THP1-XBlue-MD2-CD14 cells) were treated with each peptide (50 μg/ml) before being insulted with LPS (5 ng/ml) and incubated overnight. The NFκB inducible (Secreted Embryonic Alkaline Phosphatase) SEAP was measured in the supernatant and read for absorbance.
Next, whether blocking LRP1 signaling would have a negating effect on the peptides' ability to reduce NFkB activation was evaluated. The NFkB reporter assay was used and the cells were stimulated with LPS (5 ng/ml) to induce NFkB activity.

[1] = molecular target: recombinant LRP1-FC fusion protein (Cluster II) (Homo sapiens, UniProt Q07954); assay: Direct binding to LRP1-bound protein G beads, flow cytometry; settings: Cy5.5 labeled peptide at 1 μg/ml (FIG. 4)
Method: To confirm whether the proposed binding sequence FVFLM is where LRP1 interacts with the SERPIN peptides, SP16AALRP1 peptide having a sequence of […] (SEQ ID NO. 36) was used. […] In this assay, direct binding was assessed, as recombinant LRP1-FC fusion protein (Cluster II), was bound to protein G beads (dynabeads protein G). […] Human IgG was used as a random protein control bound to the beads.

IMG microglial cells = assay: LPS induced cytokines in IMG microglial cells, multiplex assay; settings: peptide 100 μg/ml, 24 hours, LPS 100 ng/ml
Method: (§1) FIGS. 25A-25B show the effect of SP16 on LPS induced cytokine production in murine macrophages. FIG. 25A: LPS (1 Ong/ml) was added to RAW264.7 macrophages after incubation for 1 hour with the indicated concentrations of peptide or vehicle. After 24 hours of incubation, the supernatant was assayed by ELISA for levels of TNFα or IL-6. FIG. 25B: IMG Microglial cells. SP16 (100 μg/ml), 24 hours LPS (100 ng/ml) in triplicates. Cytokines supernatant levels (pg/ml). * p-value<0.05, **, p-value<0.01.
Neuroinflammation plays a critical role in neurodegenerative disease, such as Alzheimer's Disease (AD). Reactive glia cells (such as microglial cells) play a key role in both disease initiation and progression becoming activated through dysregulated clearance of beta amyloid and other damage associated molecular patterns (DAMPs).^13 AB deposition and tau hyper-phosphorylation contribute to microglial activation, NFκB inflammatory pathway activation and release of pro-inflammatory cytokines such as TNFα, IL-6 and IL-1β, which contribute to neuronal damage and loss. […] Cytokines levels (pg/ml) in the supernatant were measured by multiplex assay.

[2] = test system: Balb/c mice, LPS challenge; assay: Inflammatory cytokines in mouse LPS challenged model (LPS 5 mg/kg); settings: 2 hours
Method: FIG. 27B: SP16 reduced inflammatory cytokines in mouse LPS challenged model. Balb/c mice were treated with vehicle, SP16 or dexamethasone prior to LPS (5 mg/kg). The cytokines were measured in the plasma at 2 hours via ELISA and compared with those from vehicle treated group. (**p<0.001).
Using a mouse model of lethal endotoxemia, in which mice were challenged with LPS (15 mg/kg), resulting in 100% mortality by 36 hours, the assessment brings focus to the potential of SP16 to regulate the cytokine storm underlying sepsis. In this model, all mice treated with SP16 survived (100% survival between 30 and 42 hours), whereas all control mice died (no survivors by 30 hours in the vehicle control group). […] This is congruent to the outcomes from high-dose levels of dexamethasone (FIG. 27B). SP16 was consistently shown to reduce TNFα, IL-6, and IL-1β, some of the most prominent and reliable biomarkers for predicting morbidity and mortality in sepsis.

RAW264.7 macrophages = assay: LPS induced cytokine production in RAW264.7 macrophages, ELISA; settings: peptide 1 hour before LPS, 24 hours
Method: as §1

## FPKMVPQFNTELKIFPEVNIK (FPKMVPQFNTELKIFPEVNIK; peptide derivative) [SP34, reference compound]
NFκB
  NFκB activity (NFκB inducible SEAP in supernatant): neither the scrambled core control peptide nor the AAT C-36 fragment decreased the NFκB activity
[1]
  binding to LRP1 bound beads (fluorescence): did not bind to LRP1 either

## SIPPEVKFNKPFVFLMIEQNTKSPLFMGKVVNP (SIPPEVKFNKPFVFLMIEQNTKSPLFMGKVVNP; listed as Homo sapiens) [SP8, reference compound]
NFκB
  NFκB activity (NFκB inducible SEAP in supernatant): neither the scrambled core control peptide nor the AAT C-36 fragment decreased the NFκB activity
NFκB; without LPS
  NFkB induction by the peptide itself: showed NFkB inducible properties without the need for LPS

## V K F N K P F V F L M I E Q N T K (VKFNKPFVFLMIEQNTK; listed as Homo sapiens) [SP16]
IMG microglial cells
  IL-10 in supernatant: highly upregulating anti-inflammatory IL-10
[2]
  IL-1β and TNFα serum levels: significant reduction of IL-1β and TNFα serum levels
RAW264.7 macrophages
  TNFα in supernatant: significantly reduced cytokine TNFα (p<0.05)
RAW264.7 macrophages; p<0.01
  IL-6 in supernatant: significantly reduced

## VKFNKAAAAAAIEQNTK (peptide derivative) [SP16AALRP1]
[1]
  binding to LRP1 bound beads (fluorescence): did not bind to LRP1
